Reference: article PMC4336329 (PLoS ONE, 2015)
Among all 310,000 compounds or so, about 14,000 (4.5%) showed an effect of 50% or more. Effects have a minus sign here. The list shows a part of the results.

Target: human ether-à-go-go-related gene (hERG) potassium channel (human, UniProt Q12809)
Assay: primary screen, population patch clamp on CHO cells stably expressing hERG
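Further: peak tail current of the secondary pulse compared with the same well before compound.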

Chain of human ether-à-go-go-related gene (hERG) potassium channel (Q12809 whole entry, looked up): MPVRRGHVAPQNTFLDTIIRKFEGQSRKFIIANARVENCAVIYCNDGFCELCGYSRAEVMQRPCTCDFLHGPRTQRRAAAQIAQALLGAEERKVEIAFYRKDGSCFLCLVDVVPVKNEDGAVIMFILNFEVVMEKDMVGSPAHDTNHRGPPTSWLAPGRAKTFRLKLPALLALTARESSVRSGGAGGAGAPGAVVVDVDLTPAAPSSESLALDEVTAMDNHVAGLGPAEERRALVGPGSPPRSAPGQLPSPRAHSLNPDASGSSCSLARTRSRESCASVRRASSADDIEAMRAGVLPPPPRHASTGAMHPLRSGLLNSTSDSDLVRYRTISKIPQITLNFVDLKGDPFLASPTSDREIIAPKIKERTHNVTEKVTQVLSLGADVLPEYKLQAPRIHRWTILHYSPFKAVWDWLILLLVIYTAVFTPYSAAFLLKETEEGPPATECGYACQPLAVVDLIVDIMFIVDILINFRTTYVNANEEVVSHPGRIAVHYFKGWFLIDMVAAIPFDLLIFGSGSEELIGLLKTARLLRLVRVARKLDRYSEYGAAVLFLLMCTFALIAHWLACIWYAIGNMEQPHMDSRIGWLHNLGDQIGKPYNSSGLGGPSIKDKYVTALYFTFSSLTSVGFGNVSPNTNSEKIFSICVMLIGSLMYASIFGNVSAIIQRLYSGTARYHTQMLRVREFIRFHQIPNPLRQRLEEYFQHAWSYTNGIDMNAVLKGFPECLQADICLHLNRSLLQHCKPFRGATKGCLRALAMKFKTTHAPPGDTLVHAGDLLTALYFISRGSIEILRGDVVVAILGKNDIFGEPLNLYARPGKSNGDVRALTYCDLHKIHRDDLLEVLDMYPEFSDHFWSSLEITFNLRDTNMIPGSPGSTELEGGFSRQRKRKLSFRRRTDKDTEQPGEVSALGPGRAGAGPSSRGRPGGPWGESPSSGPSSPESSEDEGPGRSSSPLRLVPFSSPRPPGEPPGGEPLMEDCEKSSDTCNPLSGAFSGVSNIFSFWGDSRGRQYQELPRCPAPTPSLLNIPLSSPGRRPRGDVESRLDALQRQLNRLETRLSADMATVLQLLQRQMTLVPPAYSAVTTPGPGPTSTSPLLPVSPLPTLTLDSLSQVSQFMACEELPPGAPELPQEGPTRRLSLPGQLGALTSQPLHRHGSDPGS

Row | SMILES | hERG current change (%, negative = inhibition) at 10uM [%]
1 | O=C(O)c1ccc(Cl)c(NCc2cccs2)c1 | 22.5
2 | O=C1NCCCN1Cc1ccc(F)cc1 | -8.4
3 | O=C(c1ccccn1)N1CCCC(N2CCN(c3ccc(F)cc3)CC2)C1 (stereo not drawn) | -37.2
4 | CC(=O)NC(=S)Nc1cccc(S(=O)(=O)NC2=NCCC2)c1 | -4.85
5 | N#Cc1cc2c(nc1SCc1ccccc1)CCCC2 | 30
6 | CC1(C)CC(=O)C2=C(C1)N(c1ncn[nH]1)C(N)=C(C#N)C2c1ccccc1 (stereo not drawn) | 1.19
7 | Cc1ccc(C(=O)N/C(=C\c2ccc(Cl)cc2)C(=O)NCC2CCCO2)cc1 (stereo not drawn) | -49
8 | O=C(N/N=C/c1ccc([N+](=O)[O-])s1)c1ccccc1 | 11.4
9 | NC(=O)c1ccc(NC(=O)COc2ccc([N+](=O)[O-])cc2Cl)cc1 | -13.9
10 | O=C1c2ccccc2NC(c2ccccc2Cl)N1N=C1CCCCCC1 (stereo not drawn) | -12.3
11 | Cc1cc(C)nc(SCC(=O)N/N=C/c2cccn2-c2ccc(O)cc2)n1 | 2.63
12 | O=C(Nc1cccc([N+](=O)[O-])c1)N1CCCc2ccccc21 | -13.7
13 | COc1ccc(Cl)cc1Nc1nc(C)nc2c1oc1ccccc12.Cl | 20.5
14 | CCCC1c2ccc(C)n2CCN1C(=O)Nc1ccccc1Cl (stereo not drawn) | -3.91
15 | O=C(/C=C/c1ccco1)NC(=S)N1CCCCC1 | -4.86
16 | CN(C)c1cccc(NC(=O)Cc2ccc(F)cc2)c1 | 16.8
17 | COc1ccc(-c2cc(C(F)(F)F)n3nc(C(=O)NCCCN4CCOCC4)cc3n2)cc1 | -18.5
18 | Cc1ccc(NC2=CC(=O)CC(C)(C)C2)cc1C | 2.51
19 | O=C(NCc1cccnc1)Nc1cccc([N+](=O)[O-])c1 | -1.83
20 | Cc1cccc(NC(=O)CNc2cc(C)ccc2C)c1 | -20.4
21 | CCC(C)NCCCCOc1cc(C)cc(C(C)C)c1 (stereo not drawn) | -54.9
22 | O=C(Nc1cccc(Cl)c1)c1ccc(NCCCN2CCOCC2)c([N+](=O)[O-])c1 | -37.9
23 | COc1cc(C(=O)NCCOc2ccccc2C)c(Br)c(OC)c1OC | -17.8

Row | SMILES | hERG current change (%, negative = inhibition) at 10uM [%]
24 | CCN1C(=O)[C@H]2[C@@H](c3ccc(C)cc3)N3C(=O)N(c4ccc(C(F)(F)F)cc4)C(=O)[C@@]3(CC(C)C)[C@H]2C1=O | 14.6
25 | CC(c1ccon1)N(C)C(=O)CCc1nnc(Cc2ccc(-c3ccccc3)cc2)o1 (stereo not drawn) | -21.7
26 | CC(C)(C)NC(=S)Nc1cccc(C(F)(F)F)c1 | 15.2
27 | O=C(COC(=O)c1cnccn1)NCc1ccc(Cl)cc1 | -3.54
28 | C=CCOc1ccc(/C(O)=C2/C(=O)C(=O)N(CCCN3CCOCC3)C2c2ccccc2)cc1 (stereo not drawn) | 12.5
29 | Cc1cc(C)n(CCNC(=O)C2CCC(=O)N(Cc3ccc(Cl)cc3)C2)n1 (stereo not drawn) | 15.2
30 | CC(C)COc1ccc2[nH]c3c(c2c1)CCCC3=O | 10.5
31 | Cc1ccccc1N1C(=O)C2C3CCC(O3)C2C1=O (stereo not drawn) | 20.2
32 | COC(=O)c1ccc2ccn(CC(=O)NC(C)C)c2c1 | 8.62
33 | O=C1NC[C@@H](Cc2cccc3ccccc23)N(CC2(c3ccccc3)CC2)C1=O | -10
34 | O=C(Nc1ccc2nc(-c3ccc4nc[nH]c4c3)[nH]c2c1)c1cccs1 | 17.1
35 | CCCc1[nH][nH]c(=O)c1C(c1ccc(Br)cc1)C(C#N)C#N (stereo not drawn) | 6.7
36 | COc1cc(OC)c(C(=O)NC2CC(C)(C)NC(C)(C)C2)cc1OC | 12
37 | FC(F)(F)c1cccc(NC(=S)Nc2ccc(Cl)cc2Cl)c1 | 20.7
38 | Cc1oc(C(C)(C)C)cc1C(N)=O | 12.7
39 | Nc1nnc(SCc2cccnc2)s1 | -3.41
40 | O=C1CC(c2ccc(Cl)cc2)CC(O)=C1C=NCc1ccc(Cl)c(Cl)c1 (stereo not drawn) | 6.96
41 | COc1cccc(C(=O)N2CCN(c3ccc(N4CCOCC4)nn3)CC2)c1 | -14.8
42 | N#Cc1nc(Cc2cccc3ccccc23)oc1NCc1ccc2c(c1)OCO2 | -6.58
43 | CCOc1ccc(NS(=O)(=O)c2ccc3ncsc3c2)cc1 | 2.42
44 | CCc1c(C)c2ccc(OCC(=O)OC(C)C)c(C)c2oc1=O | -4.84
45 | Cc1ccc(N/N=C2\CC(=O)c3ccccc32)cc1Cl | 23.7
46 | CSc1ccc(-c2nc(CSCC(=O)NCCCN3CCCC3=O)c(C)o2)cc1 | -14.4

Row | SMILES | hERG current change (%, negative = inhibition) at 10uM [%]
47 | CC1=C(C)CC(C(=O)NC(C)CCc2ccccc2)C(C(=O)O)C1 (stereo not drawn) | 11
48 | Cc1ccc2oc(C(=O)N3CCN(Cc4nccn4C)CC3)c(C)c2c1 | -41.3
49 | COCCOC(=O)c1c(C)oc2ccc(OCc3cc(C(=O)OC)oc3C)cc12 | -0.544
50 | O=C(COC(=O)c1cc(Br)ccc1O)NNC(=O)c1ccc([N+](=O)[O-])cc1 | -6.34
51 | COc1ccc(OC)c(NC2=NC3(CCCCC3)N=C(N)N2)c1 | 10.4
52 | CNC(=O)c1cc(C(=O)c2ccc(C(F)(F)F)cc2F)c[nH]1 | 4.82
53 | CCCCCCCCNC(=O)c1cccnc1SCC(=O)Nc1ccc(OC)cc1OC | 5.99
54 | O=C(O)CCCCCNS(=O)(=O)c1cccc2nsnc12 | -1.24
55 | O=C(NCCCN1CCN(c2ccccc2F)CC1)Nc1ccc(F)cc1 | -66.3
56 | COc1ccc(CC(=O)NCC2CCCN(Cc3cc(OC)cc(OC)c3)C2)cc1 (stereo not drawn) | -21
57 | Cc1nn(-c2nc3ccccc3s2)c(C)c1Oc1ccccc1O | 18.3
58 | COc1ccc(C2C3C(=O)N(N(C)c4ncc(C(F)(F)F)cc4Cl)C(=O)C3ON2C)cc1 (stereo not drawn) | 14.8
59 | Cc1cccc(NCc2ccc(Br)cc2)n1 | -5.75
60 | COC(=O)[C@@H]1C[C@@H]2CC[C@@H](O)C[C@@H]2N1Cc1ccc(N2CCN(C)CC2)cc1 | 9.87
61 | O=C(Nc1ccccc1-c1ccccc1)c1cnccn1 | -15.3
62 | COc1ccc(C2CC(C(F)(F)F)n3nc(C(=O)O)cc3N2)cc1 (stereo not drawn) | 22.4
63 | COc1ccc(/C=C/C(=O)OCC(=O)c2c[nH]c3ccccc23)cc1 | 11.1
64 | OCCOCCOc1ccccc1OCCOCCO | 16
65 | O=C1NC(c2ccccc2)=C(c2ccccc2)C1=O | 16.3
66 | COc1ccc(OC)c(CC(=O)N(C)C2CCCN(Cc3ccccc3F)C2)c1 (stereo not drawn) | 2.37
67 | Cn1cc(CCNCc2cn[nH]c2-c2ccc(-c3ccccc3)cc2)cn1 | -64.8
68 | Cc1ccc(C(=O)O/N=C(\N)c2ccc(C(F)(F)F)cn2)cc1 | 12.7
69 | CCOC(=O)CSCc1c(C#N)c2ccccc2n1C | -11.4

Row | SMILES | hERG current change (%, negative = inhibition) at 10uM [%]
70 | COc1ccc(OC)c(-c2csc(NC(=O)Cc3ccccc3OC)n2)c1 | -0.305
71 | COc1ccc(S(=O)(=O)N/N=C/c2ccc(OCCN3CCOCC3)c(OC)c2)cc1 | 1.42
72 | COc1ccc(C(C(=O)NC2CCCCC2)N(Cc2ccco2)C(=O)CNC(=O)c2ccco2)cc1 (stereo not drawn) | 3.89
73 | O=C1Nc2ccc([N+](=O)[O-])cc2OC1CCN1CCN(Cc2ccccc2)CC1 (stereo not drawn) | -22.8
74 | CC(C)COCC(O)CCC(=O)NNC(=S)Nc1ccccc1 (stereo not drawn) | 2.99
75 | COc1ccc2c(c1)CCc1c(C(=O)NCc3cccnc3)noc1-2 | 2.22
76 | CCCOP(=O)(O)c1c([N+](=O)[O-])cc(C(F)(F)F)cc1[N+](=O)[O-].Cc1ccc(N)cc1 | 0.849
77 | COc1ccccc1Nc1ccc2nonc2c1[N+](=O)[O-] | 6.71
78 | CC(C)(C)NC(=O)C(c1ccncc1)N(C(=O)Cn1nnc(-c2cccs2)n1)C1CCCCC1 (stereo not drawn) | -19.6
79 | CCCCNS(=O)(=O)c1ccc(NC(=O)Cc2ccc(OC)cc2)cc1 | 4.9
80 | O=C(CCn1c(=O)sc2ccccc21)NCc1ccccc1 | 1.73
81 | COc1cc(/C=C/c2sc3ccccc3[n+]2CCCS(=O)(=O)[O-])ccc1O | -1.39
82 | N#Cc1ccc(C23CC4(C2)[C@H](CN(CC2CCCCC2)[C@@H]4c2ccccc2)C3c2ccc(Cl)nc2)cc1 (stereo partly drawn) | -26.4
83 | COc1cccc(/C=C/C(=O)N2CCN(c3ccccn3)CC2)c1 | -18.6
84 | Cc1cccc(N2CC(C(=O)Nc3ccc4c(c3)OCCO4)CC2=O)c1C (stereo not drawn) | 16.4
85 | O=C(CCCCCN1C(=O)c2cccc3cccc(c23)C1=O)NCCO | -11.9
86 | O=S1OCCN1c1ccccc1 (stereo not drawn) | 10.4
87 | CCCn1c(=O)c(C(=O)NCCc2ccccc2)c(O)c2ccccc21 | 20.2
88 | CCCCNC(=O)Nc1nnc(C(C)(C)C)s1 | -3.96
89 | COC(=O)c1cc2oc(C)cc2n1CC(=O)Nc1cc(C)cc(C)c1 | 18.5
90 | Cc1ccc(NC(=O)c2nc[nH]c2C(=O)Nc2ccc(C)cc2)cc1 | 3.38
